IC50 is the fitted dose that halves viability relative to control wells, and lower means more sensitive; a limit (>, <) means that the fit lies beyond the doses tested. For AUC the same curve is integrated over the 256-fold range of doses and scaled to a fraction; the more sensitive the line, the further below 1. For part of these data: An inferred top dose is not printed in the source and was worked back from the curve model. For part of these data: Where an entry number is given, a second screen of the drug exists; the two often differ.
Legend:
Test in all cases: Viability of human cancer cell lines after 72 h of drug (GDSC screen)
[1] = compound: COc1cc2c(Nc3ccc(NC(=O)c4ccccc4)cc3)ncnc2cc1OCCCN1CCOCC1 [ZM-447439]; details: top dose inferred
Procedure: (§1)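 Human cancer cell lines in 384-well plates, medium with 10% serum, drug for 72 h over a 256-fold dose range (nine 2-fold or five 4-fold steps up to the top dose). Adherent lines were fixed and stained with the nucleic acid dye Syto60, suspension lines read with resazurin; signal relative to control wells, capped at 0 and 100%. One two-parameter sigmoid per drug and line, fitted in a mixed model over all curves with the slope shared within a line.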

[2] = compound: CC(=O)c1c(C)c2cnc(Nc3ccc(N4CCNCC4)cn3)nc2n(C2CCCC2)c1=O [PD-0332991]
Procedure: as §1

[3] = compound: Cn1cnc2c(F)c(Nc3ccc(Br)cc3Cl)c(C(=O)NOCCO)cc21 [AZD6244]; details: screen: GDSC drug entry 1062
Procedure: as §1

Row | Cell Line | AUC [1] | IC50 [1] [µM] | AUC [2] | IC50 [2] [µM] | AUC [3] | IC50 [3] [µM]
1 | NCI-H211 (small cell lung carcinoma, adherent, top dose 4 µM) | 0.855 | 3.05 | 0.917 | > 4 | 0.987 | > 4
2 | NCI-H226 (lung squamous cell carcinoma, adherent, top dose 4 µM) | 0.918 | > 4 | 0.919 | > 4 | 0.942 | > 4
3 | NCI-H322M (lung adenocarcinoma, suspension, top dose 4 µM) | 0.982 | > 4 | 0.971 | > 4 | 0.973 | > 4
4 | NCI-H345 (small cell lung carcinoma, suspension, top dose 4 µM) | 0.987 | > 4 | 0.99 | > 4 | 0.986 | > 4
5 | NCI-H446 (small cell lung carcinoma, semi-adherent, top dose 4 µM) | 0.883 | > 4 | 0.985 | > 4 | 0.986 | > 4
6 | NCI-H460 (large cell lung carcinoma, adherent, top dose 4 µM) | 0.872 | 3.2 | 0.807 | 1.81 | 0.817 | 1.97
7 | NCI-H508 (large intestine, semi-adherent, top dose 4 µM) | 0.937 | > 4 | 0.913 | > 4 | 0.654 | 0.9
8 | NCI-H510A (small cell lung carcinoma, semi-adherent, top dose 4 µM) | 0.92 | > 4 | 0.99 | > 4 | 0.908 | > 4
9 | NCI-H520 (lung squamous cell carcinoma, adherent, top dose 4 µM) | 0.917 | > 4 | 0.626 | 0.562 | 0.962 | > 4
10 | NCI-H522 (lung adenocarcinoma, adherent, top dose 2 µM) | 0.957 | > 2 | 0.98 | > 2 | 0.935 | > 2
11 | NCI-H524 (small cell lung carcinoma, suspension, top dose 4 µM) | 0.783 | 1.5 | 0.983 | > 4 | 0.988 | > 4
12 | NCI-H526 (small cell lung carcinoma, suspension, top dose 4 µM) | 0.893 | > 4 | 0.99 | > 4 | 0.987 | > 4
13 | NCI-H596 (lung adenocarcinoma, adherent, top dose 4 µM) | 0.975 | > 4 | 0.982 | > 4 | 0.982 | > 4
14 | NCI-H630 (large intestine, adherent, top dose 4 µM) | 0.976 | > 4 | 0.941 | > 4 | 0.927 | > 4
15 | NCI-H647 (non-small cell lung carcinoma, adherent, top dose 4 µM) | 0.894 | > 4 | 0.945 | > 4 | 0.953 | > 4
16 | NCI-H650 (lung adenocarcinoma, adherent, top dose 4 µM) | 0.963 | > 4 | 0.871 | > 4 | 0.984 | > 4
17 | NCI-H661 (large cell lung carcinoma, adherent, top dose 4 µM) | 0.892 | > 4 | 0.809 | 2.65 | 0.956 | > 4
18 | NCI-H720 (lung carcinoid, suspension, top dose 4 µM) | 0.818 | 2.01 | 0.992 | > 4 | 0.992 | > 4
19 | NCI-H727 (lung carcinoid, adherent, top dose 4 µM) | 0.892 | > 4 | 0.9 | > 4 | 0.864 | > 4
20 | NCI-H747 (large intestine, adherent, top dose 4 µM) | 0.756 | 1.65 | 0.704 | 1.08 | 0.569 | 0.403
21 | NCI-H810 (large cell lung carcinoma, adherent, top dose 4 µM) | 0.922 | > 4 | 0.988 | > 4 | 0.988 | > 4
22 | NCI-H835 (lung carcinoid, suspension, top dose 4 µM) | 0.983 | > 4 | 0.983 | > 4 | 0.989 | > 4
23 | NCI-H841 (small cell lung carcinoma, adherent, top dose 4 µM) | 0.868 | 3.68 | 0.897 | > 4 | 0.988 | > 4
24 | NCI-H847 (small cell lung carcinoma, adherent, top dose 4 µM) | 0.918 | > 4 | 0.993 | > 4 | 0.992 | > 4
25 | NCI-H929 (myeloma, suspension, top dose 4 µM) | 0.929 | > 4 | 0.954 | > 4 | 0.981 | > 4
26 | NCI-H1048 (small cell lung carcinoma, adherent, top dose 4 µM) | 0.817 | 1.95 | 0.984 | > 4 | 0.985 | > 4
27 | NCI-H1092 (small cell lung carcinoma, suspension, top dose 4 µM) | 0.99 | > 4 | 0.99 | > 4 | 0.988 | > 4
28 | NCI-H1105 (small cell lung carcinoma, suspension, top dose 4 µM) | 0.883 | 2.98 | 0.993 | > 4 | 0.993 | > 4
29 | NCI-H1155 (large cell lung carcinoma, suspension, top dose 4 µM) | 0.932 | > 4 | 0.987 | > 4 | 0.954 | > 4
30 | NCI-H1304 (small cell lung carcinoma, suspension, top dose 4 µM) | 0.97 | > 4 | 0.986 | > 4 | 0.988 | > 4

From the supplement of paper PMC4967469
